# From PubChem BioAssay (Tox21)
# The inconclusive results got no clear call from the source; some entries with a clear call stand among them for comparison. Potencies beside an inconclusive call are fits to weak or partial responses and may not hold up. The source made the active and inactive calls. The call rests on the fitted dose curve; in most records, active means well fitted activation curve with a large enough effect in the repeat runs; inconclusive means weak or mixed curves; inactive means flat fitted curve, though single readings scatter.
# Experiment: A CellTox Green Cytotoxicity Assay to monitor cytotoxicity in HepG2 cells - 32 hour (AID 1224883); further: nearly all actives have a fitted effect of over 50% in size
# Conditions: CellTox Green fluorescence; series mostly up to 76.8 µM; cytotoxicity increase: at the top concentration
# Procedure, shortened: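 Continuous culture of HepG2 cells with a membrane-impermeant DNA dye; rising fluorescence marks dead cells. Compound exposure lasted up to 40 h at 37 C, with reads every 8 h from 0 h.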
# On the % scale 0 is the no-effect control and ±100 the full control effect; potency means the concentration at half of the fitted maximal effect; tags describe the fitted curve by direction and shape.
SMILES,Potency,cytotoxicity increase
Cc1nccn1-c1ccc(Sc2cccc(C3(C(N)=O)CCOCC3)c2)cc1,"inconclusive: 54.9 µM [activator, single point]",–
c1cc(N(CC2CO2)CC2CO2)ccc1Cc1ccc(N(CC2CO2)CC2CO2)cc1 (configuration not stated),"inconclusive: 54.9 µM [activator, single point]",–
C=C1CC[C@H](O)CC1=C/C=C1\CCC[C@]2(C)[C@@H]([C@H](C)/C=C/[C@H](C)C(C)C)CC[C@@H]12,"inconclusive: 61.6 µM [activator, single point]",–
CO[C@H]1C=CO[C@@]2(C)Oc3c(C)c(O)c4c(O)c(c5c(c4c3C2=O)=NC2(CCN(CC(C)C)CC2)N=5)NC(=O)/C(C)=C\C=C/[C@H](C)[C@H](O)[C@@H](C)[C@@H](O)[C@@H](C)[C@H](OC(C)=O)[C@@H]1C,active: 47.9 µM,–
CC(=O)OCC1=C(C(=O)O)N2C(=O)[C@@H](NC(=O)CSc3ccncc3)[C@H]2SC1,–,inactive: -28.2% [at 35.3 µM]
Nc1cccc2c(N)cccc12,"inconclusive: 54.9 µM [activator, single point]",–
O[C@@H](CNC[C@H](O)[C@H]1CCc2cc(F)ccc2O1)[C@@H]1CCc2cc(F)ccc2O1,active: 10.7 µM,–
